Reference: US20160319036A1 (Hoffmann-La Roche, published 2016)

What was measured:
[1] = target: T1, DR5 on DR5-expressing MDA-MB 231 tumor cells (human, UniProt O14763 56-440); assay: FACS on DR5-expressing MDA-MB 231 cells, detection with Dylight649 anti-human IgG Fc F(ab')2
T1 construct: whole, on cells; also called DR5 positive MDA-MB 231 cells
Method: (§1) As control another tetravalent bispecific DR5/FAP antibody construct containing the same binders was used. Briefly, 0.2 Mio cells per well in a 96 well round bottom plate were incubated with 40 μl of the indicated concentration of the constructs for 30 min at 4° C. Unbound construct was removed by washing the cells with PBS containing 0.1% BSA. Bound constructs were detected with Dylight649-conjugated AffiniPure F(ab′)2 Fragment goat anti-human IgG Fcg Fragment Specific secondary antibody (Jackson ImmunoResearch #109-496-098; working solution 1:50 in PBS, 0.1% BSA). After 30 min incubation at 4° C. unbound antibody was removed by washing and cells were fixed using 1% PFA. Cells were analyzed using BD FACS Cantoll (Software BD DIVA). Binding of bispecific modified common light chain DR5/FAP-kappa-lambda antibody GA803_G25_H14D_001 was tested on DR5 positive MDA-MB 231 cells. The construct binds in a concentration dependent manner to MDA-MB 231 cells (FIG. 7).

[2] = target: T2, FAP on FAP-expressing fibroblast cell line GM05389 (human, UniProt Q12884 1-760); assay: FACS on FAP-expressing GM05389 fibroblasts, detection with Dylight649 anti-human IgG Fc F(ab')2
T2 construct: whole, on cells; also called FAP positive GM05389 fibroblasts
T2 sequence (looked up): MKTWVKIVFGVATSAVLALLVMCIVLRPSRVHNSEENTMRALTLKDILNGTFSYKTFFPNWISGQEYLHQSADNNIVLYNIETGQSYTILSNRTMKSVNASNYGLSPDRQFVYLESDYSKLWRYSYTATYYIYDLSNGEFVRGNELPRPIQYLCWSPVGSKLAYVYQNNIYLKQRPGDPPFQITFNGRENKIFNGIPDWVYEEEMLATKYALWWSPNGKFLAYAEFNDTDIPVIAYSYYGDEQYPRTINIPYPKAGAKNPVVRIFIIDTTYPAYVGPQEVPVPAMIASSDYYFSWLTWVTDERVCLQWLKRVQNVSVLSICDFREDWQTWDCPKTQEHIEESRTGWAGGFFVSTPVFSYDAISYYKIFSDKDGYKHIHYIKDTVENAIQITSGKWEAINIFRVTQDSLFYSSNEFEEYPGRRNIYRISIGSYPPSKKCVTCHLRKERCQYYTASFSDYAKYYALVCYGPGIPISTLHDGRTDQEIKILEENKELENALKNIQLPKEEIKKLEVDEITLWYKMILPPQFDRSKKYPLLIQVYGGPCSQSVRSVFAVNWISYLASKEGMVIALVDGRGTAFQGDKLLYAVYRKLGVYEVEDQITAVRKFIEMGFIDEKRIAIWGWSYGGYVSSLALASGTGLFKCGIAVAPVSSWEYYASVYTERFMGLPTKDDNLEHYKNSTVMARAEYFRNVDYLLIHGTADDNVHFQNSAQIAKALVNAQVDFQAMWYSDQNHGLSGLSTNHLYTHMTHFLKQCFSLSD
Method: as §1
Binding of bispecific modified common light chain DR5/FAP-kappa-lambda antibody GA803_G25_H14D_001 was tested on FAP positive GM05389 fibroblasts. The construct binds in a concentration dependent manner to GM05389 cells (FIG. 8).

binding result [1]: binds
binding result [2]: binds
B1: bispecific modified common light chain DR5/FAP-kappa-lambda antibody GA803_G25_H14D_001 (bispecific antibody, human IgG1, lambda)
heavy: DIQMTQSPSSLSASVGDRVTITCSASQGIRNYLNWYQQKPGKAPKLLIYYTSSLHSGVPSRFSGSGSGTDFTLTISSLQPEDFATYYCQQYSKLPWTFGQGTKVEIKSS[human IgG1 constant region not given here]
light 1: [about 100 residues not given here]GPYGRYAALDYWGQGTLVTVSSASVAAPSVFIFPPSDEQLKSGTASVVCLLNNFYPREAKVQWKVDNALQSGNSQESVTEQDSKDSTYSLSSTLTLSKADYEKHKVYACEVTHQGLSSPVTKSFNRGEC
light 2: [about 100 residues not given here]SVVYSYDPGFDYWGQGTLVTVSGQPKAAPSVTLFPPSSEELQANKATLVCLISDFYPGAVTVAWKADSSPVKAGVETTTPSKQSNNKYAASSYLSLTPEQWKSHRSYSCQVTHEGSTVEKTVAPTECS
notes: 1+1 bispecific with human IgG1 constant domains: two identical VL-CH1-CH2-CH3 heavy chains, one VH1-CLκ chain (DR5 arm) and one VH2-CLλ chain (FAP arm); also called <FAP(3C6)[CLλ]-DR5(2A11)[CLκ]>; 3C6/2A11
